# Reference: the supplement of paper PMC11417369
# ± gives the standard deviation of the averaged measurements. The list shows a part of the results.
# Test system: PfAP2-LT AP2 domain (GST-tagged)
# Assay: gcPBM binding intensity (ln(normalized median fluorescence intensity)); higher = stronger DNA binding
# How it was run: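 GST-tagged P. falciparum DNA-binding domains, expressed in E. coli (about 25 μg on average), were applied for 1 h to an Agilent 4 × 180k array of primer-extended double-stranded 36-bp intergenic genomic probes plus negative controls. The binding buffer was 1× PBS with 1% milk, 0.2 mg/ml BSA, 0.5% salmon testes DNA and 0.03% Triton X-100. Bound protein was detected with Alexa488 anti-GST antibody and scanned at 488 nm. Binding intensity is the highest Masliner-normalised natural-log median intensity across replicate spots of either probe orientation.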
row,Sequence,gcPBM binding intensity (ln)
1,AAAAATTCTTGGCGCACACACTTTAAAAATTAAAAA [CACACA_site4498],8.98 ± 0.43
2,TTATATTTTCAGAATAGTACACATATATACATATAT [XGTACX_site2519],8.78 ± 0.54
3,GATCATTTAAAATAAGTAATATTTTTTTTACTTTTG [TGCATGCA_negctrl_site602],8.38 ± 0.52
4,TTATAAAAGAAAAAAAAAAAAAAAAAAAAAAAAAAA [CACACA_negctrl_site1006],8.03 ± 0.37
5,TTAGTCGAATGATGTACACACATACAAAACATTTAT [CACACA_site6076],9.22 ± 0.35
6,ACTAATTACTATAAAACACACATATATATATATATA [CACACA_site2591],9.72 ± 0.46
7,AGAAAATATTTTGGTTGTACAGGCGATTTATATGTT [XGTACX_site7253],9.08 ± 0.38
8,AAAAAAAAAAAAAAAAAAAAAAAAAAAAGAAAAAAG [GTGCAC_negctrl_site583],8.42 ± 0.31
9,ATATTATTAATTTGTTGTACAGTTCTTTATTTATAG [XGTACX_site7932],8.84 ± 0.32
10,TATATGTTTGAATATACACACAACATATATATATAT [CACACA_site4066],9.22 ± 0.26
11,TATATTAAAAAAAAATGTACACATATATATATATAT [XGTACX_site4524],9.34 ± 0.028
12,CCAGGAAAAATTTATTGTACATATATTTTTATGCTC [XGTACX_site7154],8.64 ± 0.44
13,TATTTTTGGTTATGTGTGCACTATGAACAACAAAAT,8.9 ± 0.26
14,TATATCTCTTTATTCACACATACGTTTTAAAATAAT [CACACA_site5542],8.77 ± 0.45
15,TATAAATAAAGACACACACACACACCGTATAATTAC [CACACA_site7829],10 ± 0.25
16,TTCCCAACATGATATTGTACATTTAATTATAATTAA [XGTACX_site7029],8.53 ± 0.34
17,TAATAAAACATATATACACACATTAGATATACATAT [CACACA_site6897],9.07 ± 0.36
18,GAAAGAAAATATTAAGTGCATATTTTAATGATACAA [GTGCAC_site9712],8.73 ± 0.54
19,ATAAAAATAAAAAAAACACACATACCTTATTTTTGT [CACACA_site5452],8.93 ± 0.47
20,ATTTTCCATATATTTTGTACATATGTATATTTTCCC [XGTACX_site7795],9.2 ± 0.49
21,TATAAAAAATTATGTTGTACGTAATATAAAATTTGT [XGTACX_site7122],8.56 ± 0.38
22,AATCAAAATAAATTAACACACAATTTTAATATTGTT [CACACA_site10],8.74 ± 0.39
23,AAATATAAATGGTAATACACATACACACACACATAC [XGTACX_negctrl_site459],9.96 ± 0.24

row,Sequence,gcPBM binding intensity (ln)
1,TATTTTTAACAGTGCACACATAACTTAATTATATGT [CACACA_site2194],9.12 ± 0.33
2,AGATATTTTTCTTAAGTACACACTAATTAGAAACTA [CACACA_site7897],8.55 ± 0.46
3,TTTTTATTTTAAAAGAATAATTATCTAATATCTATA [CACACA_negctrl_site371],8.18 ± 0.47
4,TCGAACGTATCATGTGTACACACAAATTGTTTTTTT [CACACA_site8623],9.28 ± 0.35
5,GTATAAAAGTAACTAGTGCATTACATATGAATAAAA,8.88 ± 0.52
6,CCTTGCCCCAGGAGTTCACACACATAATAGATTGTC [CACACA_site8138],9.3 ± 0.39
7,AAAAGAAGAAACAAAACACACACAGTCTTCTTTTCT [CACACA_site9015],9.62 ± 0.4
8,ATTTGTGTTATTCGAAGTACGGATCATTTGAAATAA [XGTACX_site2510],8.56 ± 0.41
9,TTTATGAGGTTACTATGTACGCAAATTATGTAATAA [XGTACX_site325],8.55 ± 0.38
10,TCAAATTATTAAAATACACACATATTATATATATAT [CACACA_site2530],8.89 ± 0.42
11,AGCAATTTGGGGTGTACACACACCTTATTTAAATTA [CACACA_site1157],8.96 ± 0.5
12,GACACCTGCATGAAAGTGCAAAATAGAAAAGGAACA [GTGCAC_site9593],9.18 ± 0.47
13,TTACCTCTTTGAAATATACACACTAAACATATCAAC [CACACA_site2455],8.88 ± 0.4
14,AAGGAATAATAATAAATGTAAAGAAAAGCATACTGA [CACACA_negctrl_site36],8.82 ± 0.49
15,AACACGCACAGACACACACACAAAAATGATTAAAAA [CACACA_site7195],9.71 ± 0.61
16,AAATACCTTATATATACACACTATGTTTTTCTTTTT [CACACA_site4792],8.93 ± 0.43
17,AAAAAAATAAATAAGACACACACAAAAAAAAAAAAA [CACACA_site8404],9.26 ± 0.45
18,TCTTGTTATAATAATCAATATATGGGTATACTTATG [CACACA_negctrl_site1618],8.77 ± 0.47
19,AAAAGGATTTTTTATACACACACTAACTAATGTATA [CACACA_site2356],9.01 ± 0.4
20,AAATAATAAATATATCGTACAAATATCATATATAAA [XGTACX_site2771],8.89 ± 0.42
21,TTTCCTCATTTTATCATACACACTTGTTTATATGTG [CACACA_site8202],9.11 ± 0.45
22,TCCTGTTGAGAATGGCGTACATATAAATATTATATA [XGTACX_site1841],8.55 ± 0.42
23,TTTTTTCTTTTTATAACACACAGGTGAAAAATAATA [CACACA_site1850],8.36 ± 0.43

row,Sequence,gcPBM binding intensity (ln)
1,TATTACTTTATATATACACACATATAACATAAATGC [CACACA_site3948],8.96 ± 0.35
2,CAGGTTCTTATATAGTGTACTATAGACATTCAATTG [XGTACX_site7239],8.79 ± 0.39
3,TAAATAATAATAAAATGTACATTATATATGTATATG [XGTACX_site8672],8.71 ± 0.4
4,TTTTTTTTTTTTTTCTGTACTGATACTTATAGAGTT [XGTACX_site4736],8.57 ± 0.54
5,ATATACTTACATATTACACACAATATTTTTAAATGG [CACACA_site5916],8.91 ± 0.38
6,CTTTTGCCCAAAAAGGTACACACCACAAAGTACATA [CACACA_site8169],8.79 ± 0.47
7,TTGTATATACTATACACACACATACATACATACATA [CACACA_site814],9.33 ± 0.31
8,TATTTATAATTAAATACACACATATATTATAGATTT [CACACA_site6435],8.69 ± 0.35
9,TTTTATTCATCATATTGTACATTCTTGTATTTATAG [XGTACX_site8534],8.86 ± 0.41
10,TCCCTGATGTTATTTAATATACCATAAAAAAAAAAA [CACACA_negctrl_site1472],8.28 ± 0.41
11,AATAAAAAATAAAAAAGTACATGATGAAAAGGTTTA [XGTACX_site7615],8.8 ± 0.56
12,CACACTTTATAATGTTGTACGATACATTATACCAAA [XGTACX_site941],8.81 ± 0.4
13,TATATATATATATATACATGCATACAATTTTATGAG [TGCATGCA_site466],9.62 ± 0.64
14,ATCTCAAATATAATAAATTATTAGGTATATATATAT [CACACA_negctrl_site1828],8.77 ± 0.21
15,ACCCATATTCTTTTTACACACTTGAATAAAAAATAT [CACACA_site4797],8.73 ± 0.38
16,GAGATATAAAAGTGTACACATATTGTTATCCATATT [CACACA_site5441],8.9 ± 0.46
17,TATATACAAATATGTACACACATTACAGATGTACAT [CACACA_site6586],9.15 ± 0.4
18,TAGAAAAAATAAAATAGTACACATCCAAAAAAAAAA [XGTACX_site7829],8.81 ± 0.44
19,CCAAACAAAAAAAAAAGTACATAAAACACCTATTTG [XGTACX_site5645],8.81 ± 0.47
20,ATAATTAGGGTGTATTTCATTTCATTTCATTTTATT [CACACA_negctrl_site1418],9.04 ± 0.4
21,AATATATAAATATATACACACAAAAACATATATATA [CACACA_site1318],9.14 ± 0.48
22,AACGTATTATTTATCTGTACAAAATAATAACGTATT [XGTACX_site813],8.73 ± 0.35
23,TTTTGTTTTTTCAATGTGCACTTAGGATGTTTTTAT [GTGCAC_site9565],8.99 ± 0.43

row,Sequence,gcPBM binding intensity (ln)
1,TAAATAAAAATACAGTGTACTTTTTTCTATTTAAAA [XGTACX_site3288],8.22 ± 0.47
2,ATCCAAATTAATAATAGTACTTTTAAGTCCTATGTA [XGTACX_site2452],8.65 ± 0.38
3,CAAACAAATTGTGAAACACACATATATATATATATA [CACACA_site2001],9.81 ± 0.057
4,ATAATAAATGTCTTCAATGAAGTGGAAATGCTGTTA [TGCATGCA_negctrl_site238],8.64 ± 0.45
5,ATATATACATAGAATTGTACATAATTTATGTTCATT [XGTACX_site7426],8.71 ± 0.39
6,ATCATGGAAAAAACAAATGGGCTACATTACCTTTTG [GTGCAC_negctrl_site487],8.68 ± 0.45
7,TTGGAGTTCATATGTGGTACACATTTAAATATATTT [XGTACX_site5582],8.72 ± 0.43
8,GATATAAACGTATATGTACATATATATATATATATA [GTGCAC_negctrl_site186],10.1 ± 0.38
9,GTGTATCAATATGTAGGTACGTAAATATAGATAATA [XGTACX_site5526],8.97 ± 0.47
10,AAAATAAAATTTACTTGTACTAAAGGGATACGCGCA [XGTACX_site1453],8.65 ± 0.48
11,TAAATATTATTTATATGTACTGATATATTAAATAAA [XGTACX_site3446],8.23 ± 0.41
12,AATTAATATTTAAATTGTACATGAACATTTTAATGT [XGTACX_site462],8.53 ± 0.46
13,AATATAAATTTATATTGTACATATTTTATTATATGT [XGTACX_site905],8.74 ± 0.4
14,GTCACAAAATAAATTAAACACACAACATCATATATG [CACACA_site8182],9.2 ± 0.35
15,AAATAAAATCATAATGTGCGCATATAAATTTGTAGG [GTGCAC_site9662],9.14 ± 0.39
16,ATATATATATATGAAAGTACACATCTATTTTTTCTT [XGTACX_site6059],9.13 ± 0.35
17,AAGGTAGATATATTTAGTACGTAATTTTTTTTTTTT [XGTACX_site7288],8.62 ± 0.5
18,TAATATAATATATAGGTGCAATATTAACAAAAATTT,8.72 ± 0.47
19,ATTAATATGAATAAATGTACAAATGAATGATTACAT [XGTACX_site6044],8.85 ± 0.47
20,ATAATGTGTTAGGCGTGTACACAATTGTATGGTTTA [XGTACX_site2377],9.12 ± 0.33
